Measured values as given in the supplement of paper PMC10441789.
The list shows a part of the results. Antibody binding of pooled human sera (four to six donors per pool; dilution not stated) to peptides of the Trypanosoma cruzi antigen TSSA on microarrays. Quantile-normalised fluorescence in arbitrary units, mean of duplicate arrays; higher = more binding. No active / inactive call. The uninfected pools are read here as the healthy donors of the same country. The strongest signals lie near the top of the scale (about 60,000).

System: pooled sera of uninfected people, Colombia
Experiment: antibody binding signal (normalised fluorescence) (arbitrary fluorescence units); higher = stronger serum antibody binding to peptide
Protocol: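 Microarray of 15-residue peptides over residues 30-55 of Trypanosoma cruzi TSSAII, each with 1 to 10 substitutions at naturally variable positions, probed with one serum pool per country.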

Sequence | antibody binding signal
GKDKKTATGGAPSQP | 79.7
SGTEKKTAAGETPSP | 616
PPSGKENKPAAGGAP | 499
NKPAAGEAPSPPGAS | 715
SGTDKKPAAGGTPSP | 476
GTDNKTAAGGAPSQS | 185
TDKKAATGGTPSPSG | 1160
KDKKTAAGGAPSPSG | 137
GTENKAATGETPSQS | 149
GTDKKTATGETPSQP | 105
PPSGTENKTAAGEAP | 435
GKEKKPATGGAPSQP | 95.1
ISTPPSGKDKKTAAG | 136
TDKKAATGGAPSQPG | 834
TEKKAATGGTPSPSG | 1410
ENKAAAGEAPSQPGA | 138
GKDKKAAAGEAPSPS | 102
PSGTEKKAAAGGAPS | 269
KAATGGTPSQPGASS | 116
SGKDKKPAAGETPSQ | 1540

Sequence | antibody binding signal
TENKPAAGGAPSPSG | 214
GTDKKTAAGGAPSPP | 277
NKTATGETPSPPGAS | 641
STPPSGKDKKAAAGG | 135
GKDKKPATGETPSQS | 144
SGKDNKPAAGEAPSP | 366
GKENKTAAGGTPSPS | 170
KENKAATGGAPSQSG | 99.6
GTEKKAATGETPSQP | 854
SGTENKTAAGETPSP | 273
GTDKKPAAGGAPSPS | 188
EKKTAAGETPSPPGA | 540
KKTATGGTPSPPGAS | 254
SGKENKAATGETPSQ | 636
PSGTDKKAATGETPS | 632
TPPSGKENKPATGEA | 755
DKKPAAGGTPSPPGA | 218
GKDNKTATGEAPSPS | 377
TISTPPSGKDNKTAT | 226
SGKEKKTAAGGTPSP | 157
